# About 7,500 (2.1%) of roughly 360,000 compounds were called active. Inconclusive results, whose numbers are uncertain, are shown with a selection of clear calls. Calls come from the whole dose curve; as a rule, active = well fitted cell-killing curve with a large enough effect; inconclusive = small, poorly fitted or top-dose-only effect, or effect the other way, or another doubt; inactive = no such curve, though single readings can be large or run the other way. Potencies of inconclusive entries are left out as doubtful fits.
# Assay: qHTS for induction of synthetic lethality in tumor cells producing 2HG: qHTS for the HT-1080-IDH1KD cell line;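 for activity, negative = toxicity: 0% = DMSO wells and -100% = cell-free medium wells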
# Settings: HT-1080 IDH1 knockdown viability, ATP luminescence, 48 h; activity, negative = toxicity: at 46.1 µM (top of the series) unless noted
# How it was run: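 Cytotoxicity counter-line: IDH1KD HT-1080, 48 h, CellTiter-Glo. Curves classed by r2, magnitude and activity.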
# Potency is the fitted concentration of half-maximal effect; tags give direction and shape of the fitted curve.
SMILES,Potency,"activity, negative = toxicity"
COC(=O)[C@@]12C[C@@H](CC(=O)NCCCCc3ccccc3)C(=O)N(CCc3ccc(OC)c(OC)c3)C1=CCC(C)(C)C2,"inconclusive [cytotoxic, single point]",
O=C(O)c1ccccc1CSc1nc2ccccc2n1Cc1ccccc1C(=O)O,,inactive: 6.39%
CSc1ccc(NC(=O)NCCCN2CCN(c3ccccc3F)CC2)cc1,,inconclusive: -31.4% [cytotoxic]
O=C(Nc1cnn(Cc2ccc(Cl)cc2)c1)c1cccs1,"inconclusive [cytotoxic, partial curve]",
Cc1scc(C(=O)NNC(=S)NCC2CCCO2)c1-c1ccccc1 (centres undefined),,inactive: 11.4%
CCNC(=S)NNC(=O)c1csc2ccccc12,"inconclusive [cytotoxic, single point]",
CCCCNC(=O)c1cc2c(=O)n(CC)c3ccccc3c2s1,"inconclusive [rising, partial curve, poor fit]",
COC(=O)c1ccc2nc(-c3cccc(Br)c3)c(Cc3ccccc3OC)n2c1,active: 11.6 µM,
CCOc1cc(/C=N\Nc2ncc(F)c(N3CCOCC3)n2)ccc1Oc1nc(Cl)ncc1F,"inconclusive [cytotoxic, single point]",
CC(C)OC(=O)c1c(NS(=O)(=O)c2ccccc2)sc2c1CCCC2,"inconclusive [cytotoxic, single point]",
COc1ccc(CNC(=O)Cc2ccc(-c3ccccc3)cc2)cc1OC,active: 14.6 µM,
Cc1cc(C)c(S(=O)(=O)/N=C2\C=C(Nc3ccc(C(=O)O)cc3)C(=O)c3ccccc32)c(C)c1,active: 4.11 µM,
S=c1[nH]nc(-c2cccs2)n1/N=C/c1cn(-c2ccccc2)nc1-c1cccs1,"inconclusive [cytotoxic, single point]",
COc1ccc(C2OC(=O)CC2C(=O)NCc2ccccc2Cl)cc1OC (centres undefined),,inactive: -5.48%
CC(=O)c1c(C)[nH]c(C(=O)COc2cc(C)cc(C)c2)c1C,"inconclusive [cytotoxic, single point]",
O=[N+]([O-])c1ccc(CNc2cccc(Cl)c2)s1,,inactive: -7.81%
CC(=O)Nc1ccc(C=NNc2ccc([N+](=O)[O-])cn2)cc1,,inactive: -9.55%
CCCCCCCCN1C(=O)[C@H](CC(=O)NCCCN2CCCC2=O)C[C@@]2(C(=O)OCC)CCCC=C12,,inactive: -26.4%
COc1ccc(CN2CCNC(=O)C2CC(=O)N2CCCCO2)c(OC)c1 (centres undefined),,inactive: 7.95%
c1coc(CNc2nc3ccccc3s2)c1,,inactive: 0.664%

SMILES,Potency,"activity, negative = toxicity"
CCOC(=O)COc1ccc(/C=C/[N+](=O)[O-])c(OCC(=O)OCC)c1,active: 5.62 µM,
C/C(=N\NC(=O)c1ccccc1Cl)c1ccccn1,"inconclusive [cytotoxic, full curve]",
Cc1ccc(-c2csc3nnc(SCC(=O)Nc4nsc(-c5ccccc5)n4)n23)cc1,"inconclusive [cytotoxic, single point]",
N#Cc1ccc(OCC(=O)Nc2nc(-c3ccccn3)cs2)cc1,"inconclusive [cytotoxic, full curve]",
NS(=O)(=O)c1ccc(N2N=C(c3ccccc3)CC2c2ccccc2)cc1 (centres undefined),"inconclusive [cytotoxic, single point]",
CC(C)Cn1c(N)c(C(=O)CSc2nnc(C3CC3)n2C2CC2)c(=O)n(C)c1=O,,inactive: -6.83%
CCCc1nc2ccccc2c(=O)n1NC(=O)c1c(O)c2cccc3c2n(c1=O)CCC3,,inactive: 2.37%
CN1CCC2(CC1)N=C(c1ccc(F)cc1)C(=S)N2C(=O)c1ccc(C(C)(C)C)cc1,"inconclusive [cytotoxic, single point]",
Cn1c(=O)[nH]c(=O)c2c1nc(Sc1nc3ccccc3s1)n2Cc1ccccc1,"inconclusive [cytotoxic, partial curve]",
O=C(c1cc(-c2cccc(Cl)c2)nc2ccccc12)N1CCN(c2ccccn2)CC1,,inactive: -13.2%
Cc1cccc(/C=C/c2nc3ccccc3c(=O)n2Cc2ccccc2)c1,"inconclusive [cytotoxic, single point]",
CCCc1sc(N/N=C/c2ccccn2)nc1-c1ccc(F)cc1,active: 3.16 µM,
CCOC(=O)c1[nH]nc(-c2cc(CC)c(O)cc2O)c1-c1cscn1,"inconclusive [cytotoxic, single point]",
CCCN1CCN(CCCNC(=O)c2cc3c(=O)[nH]c4ccc(C)cc4c3s2)CC1,active: 25.9 µM,
COc1nc(Nc2nc3ccccc3c(=O)[nH]2)nc2ccc(C)cc12,active: 1.3 µM,
CCc1c(C)nc2ncnn2c1Nc1ccccc1C,,inactive: -10%
CCOc1ccc(Nc2cc(C)nc3c(C)cccc23)cc1,"inconclusive [cytotoxic, partial curve]",
O=C(COc1ccccc1)NC(=S)Nc1cccc2cc(O)ccc12,,inactive: -13.4%
Cc1cc(N)n2ncc(-c3ccc(Cl)cc3)c2n1,"inconclusive [cytotoxic, single point]",

# From PubChem BioAssay AID686971 (National Center for Advancing Translational Sciences (NCATS), 2013)
